Values joined by “and” are separate entries in the source; they are usually repeats but may differ in a detail not shown here. Equal values may be shown once. ± gives the standard deviation of the averaged measurements. Over roughly 1,900 compounds, “CD40L-induced NF-kB luciferase activity, plate-corrected, relative to DMSO (0) and IKK inhibitor VII (-100) controls” has its median near 0.032; the lowest 2% begin near -26. The list shows a part of the results.
The compounds below were run on BL2-NFkB-Luc (assay: CD40L-induced NF-kB luciferase activity, plate-corrected, relative to DMSO (0) and IKK inhibitor VII (-100) controls (% normalized activity); higher = more NF-kB reporter activity (less inhibition)). Details: 9.4 µM; stimulus: tCD40L 64 ng/ml; 4.5 h.
Protocol: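 BL2 B cells with a stable NF-kB response-element luciferase reporter (BL2-NFkB-Luc), 384-well. Cells were pre-incubated with compound at 9.4 uM for 1 h at 37 C, then stimulated with 64 ng/ml trimerized CD40L for 4.5 h; luciferase was read with Steady-Glo. Signal was normalised per plate in Genedata (median DMSO neutral control = 0, median IKK inhibitor VII at 50 uM = -100) with Assay Median plate-pattern correction; duplicate plates.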

Structure (SMILES) | CD40L-induced NF-kB luciferase activity
CC1(C)CC(=O)c2c(nc3ccccc3c2N)C1 | 3.92 ± 3.9
O=C(Nc1c(C(=O)O)[nH]c2ccccc12)NC1CCCCC1 | -0.728 ± 0.3
CC1CCN(CCOCCOc2ccccc2Br)CC1 | -6.43 ± 0.53
CC(C)[C@H]1CN(C)CCN1Cc1cn(C)nc1-c1cccc(Cl)c1 | 2.03 ± 0.42
CCC(CO)NCCNC(CC)CO (centres undefined) | -0.602 ± 4.3
c1cnc(N2CCN(Cc3ccc4c(c3)OCO4)CC2)nc1 | 1.72 ± 4.8
CN(C)C(=O)C12CCC(C)(c3nc4ccccc4nc31)C2(C)C (centres undefined) | -0.308 ± 2.1
CNS(=O)(=O)c1ccc(C)cc1 | -4.84 ± 3.1
COC(=O)c1ccc2c(c1)C(=O)/C(=C/c1ccc(O)cc1)O2 | 27.6 ± 4.8
COc1cccc(-n2cc(CNCc3c(C(=O)N(C)C)nc4ccc(Cl)cn34)cn2)c1 | -9.15 ± 7.3
COC(=O)c1cc(C(=O)NCCC(C)C)cc([N+](=O)[O-])c1 | 2.53 ± 4.5
CC(C)NCC(O)COc1ccc(CCOCC2CC2)cc1 (centres undefined) | 2.37 ± 1.7
O=C(NCCc1cccc(F)c1)[C@@H]1CSC2c3ccccc3C(=O)N21 (some centres undefined) | 1.68 ± 3.7
CCc1nc(N)nc(N)c1-c1ccc(Cl)cc1 | -2.25 ± 6.6
CC(=O)[C@@]1(O)CC[C@H]2[C@@H]3C[C@H](C)C4=CC(=O)C=C[C@]4(C)[C@@]3(F)[C@@H](O)C[C@@]21C | -27 ± 2.1
Clc1ccc(OCCCN2CCCCC2)c(Br)c1 | 26.05 ± 0.19
C1CCC(C(CC2CCCCN2)C2CCCCC2)CC1 (centres undefined) | -4.41 ± 2.6
COc1cccc(CN2CCN(C(=O)c3ccc(-c4ccccc4)cc3)CC2)c1 | -7.33 ± 1.1
Cc1ccc(S(=O)(=O)N[C@@H](Cc2ccccc2)C(=O)CCl)cc1 | -1.58 ± 3.4
Cc1ccc(S(=O)(=O)Nc2ccc(S(=O)(=O)Nc3cc(C)nc(C)n3)cc2)cc1 | -8.38 ± 8.1
CCN(CC)CCCNC(=O)C1c2ccccc2Oc2ccccc21 | -3.46 ± 0.27
COc1ccc(CCN=C(N)C(C)c2ccccc2)cc1OC (centres undefined) | -3.05 ± 0.85
COC1CCN(C(=O)c2ccc(OC3CCN(Cc4ccccn4)CC3)cc2)CC1 | 1.24 ± 1.7
C1COC(NC(C2CC2)C2CC2)=N1 | -13.2 ± 2.6

Structure (SMILES) | CD40L-induced NF-kB luciferase activity
OC[C@H]1O[C@@H](n2cnc3c(NC4CCCC4)ncnc32)[C@H](O)[C@@H]1O | 2.06 ± 1.5
CCOc1cc(C)cc2oc(=O)cc(-c3ccccc3)c12 | 3.93 ± 4.9
CCN(Cc1ccncc1)Cc1nc(Cc2ccccc2Cl)no1 | -7.81 ± 3.5
O=C1c2ccccc2C(=O)N1N=Cc1ccc(Oc2ccc([N+](=O)[O-])cn2)cc1 | -4.09 ± 2.3
CC(C)CC(=O)Nc1ccc2oc(-c3ccncc3)nc2c1 | 26 ± 0.73
COc1cccc2c1C(=O)O/C2=C/c1ccc2c(c1)OCO2 | 28.6 ± 1.4
Cc1ccc2c(c1C)NC(C(=O)O)C1CC=CC21 (centres undefined) | 3.76 ± 5.1
c1cc2c(cc1C1CCCCC1)c1c3n2CCN=C3CCC1 | 0.187 ± 4.2
CC(C)[N+](C)(CCOC(=O)C1c2ccccc2Oc2ccccc21)C(C)C | 0.014 ± 1.2
CC(C)CCn1c(N2CCc3ccccc3C2)nc2c1c(=O)[nH]c(=O)n2C | -3.02 ± 1.3
c1ccc(Nc2ccccn2)nc1 | 6.17 ± 1.9
Cc1oc2c(O)c(O)ccc2c(=O)c1-c1ccccc1 | -3.05 ± 0.95
O=C(O)CCNC(=O)c1ccccc1 | -9.57 ± 13
CC1=NN(c2ccccc2)C(=O)C1 | 5.27 ± 1.1
COc1ccc(S(=O)(=O)NCc2ccco2)c2ccccc12 | -4.19 ± 2.6
CCc1ccc(/C=C2\Oc3cc(OC(=O)N4CCOCC4)ccc3C2=O)cc1 | -1.86 ± 2.5
CCN(CC)CCNC(=O)c1cc(Cl)c(N)cc1OC | -2.68 ± 3.5
Cn1c(=O)c2c(nc(SCCN3CCCCC3)n2C)n(C)c1=O | 20.3 ± 3.3
COc1cc2c(cc1OC)C1(CCCC1)CNC2c1cccc([N+](=O)[O-])c1 (centres undefined) | 3.56 ± 5.5
CCOc1ccc2ccccc2c1C(=O)N[C@@H]1C(=O)N2[C@@H]1SC(C)(C)[C@@H]2C(=O)O | -1.05 ± 2.5
CCCC(=O)O[C@]1(C(=O)CCl)[C@@H](C)C[C@H]2[C@@H]3CCC4=CC(=O)C=C[C@]4(C)[C@@]3(F)C(=O)C[C@@]21C | -27.9 ± 3.7
NCCCC(=O)O | -0.919 ± 3
O=C(c1ccccc1)N1CCN(C(=O)c2ccccc2)CC1 | -3.7 ± 1.3
COc1ccc(OC)c(S(=O)(=O)N2CCCc3ccccc32)c1 | -3.54 ± 0.38

Structure (SMILES) | CD40L-induced NF-kB luciferase activity
NCCc1cnc[nH]1 | -0.729 and -1.3
CC/C(=C(\c1ccc(O)cc1)c1ccc(OCCN(C)C)cc1)c1ccccc1 | -3 ± 0.97
NC(N)=NC(=O)Cc1c(Cl)cccc1Cl | -6.83 ± 6.3
C[C@H](NC(=O)OC(C)(C)C)C(=O)NCC1CCC(C(=O)O)CC1 (some centres undefined) | 2.59 ± 0.03
CN(CCO)CC(O)Cn1cnc2c1c(=O)n(C)c(=O)n2C (centres undefined) | -3.01 ± 0.15
NS(=O)(=O)c1cc2c(cc1Cl)NC(C(Cl)Cl)NS2(=O)=O (centres undefined) | 2.87 ± 3.3
O=C(Cc1c[nH]c2ccccc12)OCCOC(=O)Cc1c[nH]c2ccccc12 | -3.25 ± 3.6
CC(=O)N1N=C(c2cccs2)CC1c1ccc(C)o1 (centres undefined) | 0.129 ± 2.6
Cc1cc(=O)oc(C)c1C(=O)NCCC(C)C | 4.9 ± 3
O=C(CCCC(=O)OCC1CCCO1)OCC1CCCO1 (centres undefined) | -8.19 ± 8
O=P(O)(O)CP(=O)(O)O | 6.79 ± 4.2
Cn1c(=O)c2nc3ccccc3nc2n(C)c1=O | 12.48 ± 0.071
CC(C(=O)O)c1ccc(-c2ccccc2)c(F)c1 (centres undefined) | 2.04 ± 0.53
C=CCOc1ccc(C(=O)CC)cc1OC | -1.53 ± 1.7
Cn1c(=O)[nH]c2nnc(-c3ccc(Cl)c(Cl)c3)nc2c1=O | 25.5 ± 4.7
CSCCC(NC(=O)OC(C)(C)C)C(=O)Oc1ccc2c(=O)c(-c3ccc4c(c3)OCCO4)coc2c1 (centres undefined) | 11.9 ± 6.7
CN(C)C(=O)C(CCN1CCC(O)(c2ccc(Cl)cc2)CC1)(c1ccccc1)c1ccccc1 | -4.63 ± 1.5
COc1cc2c(cc1OC)C(c1cc(OC)c(OC)c(OC)c1)NCC2 (centres undefined) | -1.85 ± 0.47
CCCCC[C@H](O)/C=C/C1=C(CCCCCCC(=O)O)C(=O)CC1 | -4.93 ± 1.7
COc1cccc(-n2c(C)c3c(OC)cccc(=O)c3c2C)c1 | -4.99 ± 6.2
Oc1c(Cl)cc(Cl)c(Cl)c1Cc1c(O)c(Cl)cc(Cl)c1Cl | -6.22 ± 3
O=C(CCC(=O)NCCO)NCCO | 1.09 ± 0.48
COc1ccc(C(=O)/C=C2/c3ccccc3CC(C)(C)N2C)cc1 | 4.49 ± 0.47
CNc1nc(Nc2ccccc2)nc(OCC(F)(F)F)n1 | 2.12 ± 3.1

Structure (SMILES) | CD40L-induced NF-kB luciferase activity
COc1cccc(OC)c1C(=O)NCCSC1CCCCC1 | 0.829 ± 0.17
Oc1ccc(/C=C/c2cc(O)cc(O)c2)cc1 | 44.38 ± 0.15
CCc1nc2ccccc2c(NC(=O)CN2CC(C)CC(C)C2)c1C (centres undefined) | -3.42 ± 6.9
CC(=O)N/C(=C/c1ccc2c(c1)OCO2)C(=O)NCCO | 2.15 ± 2.1
COc1ccc(/C=C/C(=O)Nc2ccccc2C(=O)O)cc1OC | -57.1 ± 1.6
COC(=O)c1cc(-c2ccc(OC)c(OC)c2)on1 | -0.743 ± 1.4
COc1cc2c(cc1OC)/C(=C/c1ccc(Cl)cc1)C(=O)OC2 | -0.812 ± 2.7
CC(=O)c1ccc(CCCCCCCCCC(=O)O)s1 | 4.89 ± 2.2
C=C(C)Cn1c(NCCOC)nc2c1c(=O)[nH]c(=O)n2C | -1.58 ± 2.6
Cc1cc(=O)[nH]c(=S)[nH]1 | 2.7 ± 1.2
O=C(CCCCCCCC(=O)c1ccccc1)c1ccccc1 | 3.49 ± 0.72
Cc1ccc(Nc2ncccc2C(=O)O)cc1C | 36.8 ± 2.2
COc1ccccc1C(=O)Oc1ccc2c(c1)O/C(=C\c1ccncc1)C2=O | -3.17 ± 3.9
CN(C)CCOC(C)(c1ccccc1)c1ccccn1 (centres undefined) | 1.25 ± 1.6
Cc1oc2c(CN3CCCC3)c(O)ccc2c(=O)c1-c1ccc(Cl)cc1 | 8.32 ± 2.4
CN(C(=O)C(Cl)Cl)c1ccc(OC(=O)c2ccco2)cc1 | 0.505 ± 2.8
Cc1ccc(S(=O)(=O)NC(C(=O)Oc2ccc3c(C(F)(F)F)cc(=O)oc3c2)c2ccccc2)cc1 (centres undefined) | -3.22 ± 4.6
COC(=O)c1cc(OC)c(OC)cc1NC(=O)CN1C(=O)c2ccccc2C1=O | 8.56 ± 6.7
C[N+]1(C2CCC3CCCC2C3O)CCCCC1 (centres undefined) | -1.43 ± 5.8
CC(C)[N+]1(C)[C@@H]2CC[C@H]1CC(OC(=O)C(CO)c1ccccc1)C2 (some centres undefined) | -0.414 ± 0.2
CNC[C@H](O)c1ccc(O)c(O)c1 | -11.2 ± 3.2
CN1CCN(CCCN2c3ccccc3Sc3ccc(C(F)(F)F)cc32)CC1 | 1.23 ± 2.6
Cc1ncc(C(=O)O)c(C(=O)O)c1N | -0.489 ± 5.9
CC(C)CC(NC(=O)C1CCCN1C(=O)OC(C)(C)C)C(=O)NCC(N)=O (centres undefined) | -0.318 ± 0.65

Structure (SMILES) | CD40L-induced NF-kB luciferase activity
Cc1ccc(S(=O)(=O)n2ccnc2)cc1C | -16.2 ± 6.2
COc1ccc(NC(=O)C2C(=O)N(CCO)C3(C)CC2c2ccccc2O3)cc1 (centres undefined) | 5.36 ± 7.6
Cc1csc(-c2coc3cc(O)cc(C)c3c2=O)n1 | 62.8 ± 3.9
CC(C)OC(=O)CC1C(=O)NCCN1C(=S)NC(=O)c1cccs1 (centres undefined) | -11.9 ± 12
CC(NC(=O)c1cccnc1)C(=O)O (centres undefined) | -1.3 ± 1.4
NC(N)=NC(N)=NCCc1ccccc1 | -4.45 ± 1.2
O=C(NN=Cc1cc([N+](=O)[O-])ccc1N1CCOCC1)c1ccccn1 | -0.874 ± 1.6
COc1ccc(OCc2cccc(C(=O)NN)c2)cc1 | -59.1 ± 2.2
O=C(COc1ccc2ccc(=O)oc2c1)c1ccccc1 | 16.8 ± 3.2
CCc1cccc2c1NC1(CCCC1)CC2C (centres undefined) | 1.37 ± 4.9
O[C@H]1COC2C1OC[C@@H]2O (some centres undefined) | 1.47 ± 0.99
COc1ccc2c(c1)c(CC(=O)O)c(C)n2C(=O)c1ccc(Cl)cc1 | 1.16 ± 3.5
CC(C)CN1CCN(Cc2ccc(C#CC(C)(C)O)cc2)CC1CCO (centres undefined) | -2.16 ± 1.9
Nc1nc2ccc(OC(F)(F)F)cc2s1 | 19.1 ± 9.8
O=c1ccc2c(o1)/C(=C/C=C(Cl)Cl)CCC2 | -2.26 ± 3.7
Cc1cccc(N2CCN(C(=S)c3ccccc3)CC2)c1 | 6.51 ± 2.4
O=c1c(-c2ccc3c(c2)OCCO3)coc2cc(OC3OC(CO)C(O)C(O)C3O)ccc12 (centres undefined) | 29.3 ± 9.5
C=CCc1cc(Cl)ccc1OCCOCCN(C)C | 2.96 ± 3.2
Cn1c(=O)c2c(ncn2Cc2ccccc2)n(C)c1=O | -3.59 ± 7.1
CC(=O)NC1C(OCCOc2ccc(Cl)cc2Cl)OC(COC(C)=O)C(OC(C)=O)C1OC(C)=O (centres undefined) | -3.11 ± 1.6
CCOC(=O)C(NC(=O)CCC(=O)Nc1ccc(S(N)(=O)=O)cc1)C(O)c1ccccc1 (centres undefined) | 0.478 ± 4.7
CCOC(=O)C1C(=O)OC2(CCOC(C)(C)C2)C1C(=O)OCC (centres undefined) | -0.371 ± 1.7
O=C(C1CCCCC1)N1CC(=O)N2CCc3ccccc3C2C1 (centres undefined) | 0.441 ± 1.9
